Where two headings read alike, the source gives them in different places. Each block holds one binder with its values, some of them ahead of it.
Legend:
[1] = biological target: T1, human CEACAM5 (carcinoembryonic antigen, CEA) on cells (human, UniProt P06731 35-685); assay: cell-based or functional assay
T1 sequence: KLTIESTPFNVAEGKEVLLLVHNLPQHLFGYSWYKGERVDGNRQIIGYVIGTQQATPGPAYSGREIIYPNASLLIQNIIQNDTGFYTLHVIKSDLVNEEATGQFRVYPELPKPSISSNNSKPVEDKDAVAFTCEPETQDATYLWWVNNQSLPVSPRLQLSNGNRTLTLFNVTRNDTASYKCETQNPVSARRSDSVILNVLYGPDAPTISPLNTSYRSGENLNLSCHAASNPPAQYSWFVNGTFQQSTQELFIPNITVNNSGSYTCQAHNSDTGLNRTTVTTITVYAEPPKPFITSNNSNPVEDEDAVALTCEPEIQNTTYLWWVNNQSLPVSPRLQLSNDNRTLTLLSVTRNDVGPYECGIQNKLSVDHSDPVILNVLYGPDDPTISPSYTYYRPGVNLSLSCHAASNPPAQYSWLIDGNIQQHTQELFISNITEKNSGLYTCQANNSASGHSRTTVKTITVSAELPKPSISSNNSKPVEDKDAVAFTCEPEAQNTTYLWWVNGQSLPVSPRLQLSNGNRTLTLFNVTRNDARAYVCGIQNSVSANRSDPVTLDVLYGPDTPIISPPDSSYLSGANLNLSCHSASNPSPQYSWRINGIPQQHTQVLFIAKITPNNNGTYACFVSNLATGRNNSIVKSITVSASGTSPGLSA

[2] = biological target: T2, cynomolgus monkey CEACAM5 on CHO-k1-cynoCEACAM5 clone 8 cells (cynomolgus monkey); assay: cell-based or functional assay
[3] = biological target: T1, human CEACAM5 (carcinoembryonic …); assay: cell-based or functional assay; parameters: AUC of activation curve, Jurkat-hu4-1BB-NFκB-luc2, no CEA+ cells / AUC of activation curve, Jurkat-hu4-1BB-NFκB-luc2 with CHO-k1-cyno CEACAM5 clone 8: unit not given beside the values
[4] = biological target: T2, cynomolgus monkey CEACAM5 on …; assay: cell-based or functional assay; parameters: AUC of activation curve, Jurkat-hu4-1BB-NFκB-luc2, no CEA+ cells / AUC of activation curve, Jurkat-hu4-1BB-NFκB-luc2 with CHO-k1-cyno CEACAM5 clone 8: unit not given beside the values
[5] = biological target: human 4-1BB on Jurkat-hu4-1BB-NFκB-luc2 reporter cells (human, UniProt Q07011 24-255); assay: cell-based or functional assay; parameters: AUC of activation curve, Jurkat-hu4-1BB-NFκB-luc2, no CEA+ cells / AUC of activation curve, Jurkat-hu4-1BB-NFκB-luc2 with CHO-k1-cyno CEACAM5 clone 8: unit not given beside the values
[6] = biological target: T1, human CEACAM5 (carcinoembryonic …); assay: flow cytometry, CHO-k1-huCEACAM5 clone 11
[7] = biological target: T1, human CEACAM5 (carcinoembryonic …); assay: flow cytometry, CHO-k1-huCEACAM5 clone 12
[8] = biological target: T1, human CEACAM5 (carcinoembryonic …); assay: flow cytometry, CHO-k1-huCEACAM5 clone 11; parameters: unit not given beside the values
[9] = biological target: T1, human CEACAM5 (carcinoembryonic …); assay: flow cytometry, CHO-k1-huCEACAM5 clone 12; parameters: unit not given beside the values
[10] = biological target: T2, cynomolgus monkey CEACAM5 on …; assay: flow cytometry, CHO-k1-cynoCEACAM5 clone 8; parameters: unit not given beside the values
hu N(A2-B2)A-avi-His = biological target: T3, hu N(A2-B2)A-avi-His (human, biotin on the avi tag where used biotinylated); assay: SPR (Biacore T200), huN(A2-B2)A immobilised on a CM5 chip, construct injected as analyte 1
T3 construct: chimeric soluble antigen; also called hu N(A2-B2)A-avi-His B; human CEA (A2 domain)
T3 chain: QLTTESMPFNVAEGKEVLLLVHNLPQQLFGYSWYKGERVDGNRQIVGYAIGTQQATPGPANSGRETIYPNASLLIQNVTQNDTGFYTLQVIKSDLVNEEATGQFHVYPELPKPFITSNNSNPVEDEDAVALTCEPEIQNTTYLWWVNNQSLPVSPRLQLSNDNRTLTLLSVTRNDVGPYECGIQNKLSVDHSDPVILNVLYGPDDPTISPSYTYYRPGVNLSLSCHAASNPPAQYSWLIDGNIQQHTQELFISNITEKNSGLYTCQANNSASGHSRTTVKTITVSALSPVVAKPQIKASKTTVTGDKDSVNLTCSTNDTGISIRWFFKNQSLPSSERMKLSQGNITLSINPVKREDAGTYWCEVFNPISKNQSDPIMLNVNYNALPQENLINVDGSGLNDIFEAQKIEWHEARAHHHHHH
Protocol: All SPR experiments were performed on a Biacore T200 at 25° C. with HBS-EP as running buffer (0.01 M HEPES pH 7.4, 0.15 M NaCl, 3 mM EDTA, 0.005% Surfactant P20, Biacore, Freiburg/Germany).
Bulk refractive index differences were corrected for by subtracting the response obtained in a reference flow cell, where no protein was immobilized.

[11] = biological target: T1, human CEACAM5 (carcinoembryonic …); assay: flow cytometry, CHO-k1-huCEACAM5 clone 11; remark: listed apart in the source
[12] = biological target: T1, human CEACAM5 (carcinoembryonic …); assay: flow cytometry, CHO-k1-huCEACAM5 clone 12; remark: listed apart in the source
[13] = biological target: T1, human CEACAM5 (carcinoembryonic …); assay: flow cytometry, CHO-k1-huCEACAM5 clone 13
[14] = biological target: T1, human CEACAM5 (carcinoembryonic …); assay: flow cytometry, CHO-k1-huCEACAM5 clone 17
[15] = biological target: T1, human CEACAM5 (carcinoembryonic …); assay: flow cytometry, CHO-k1-huCEACAM5 clone 11; parameters: unit not given beside the values; remark: listed apart in the source
[16] = biological target: T1, human CEACAM5 (carcinoembryonic …); assay: flow cytometry, CHO-k1-huCEACAM5 clone 12; parameters: unit not given beside the values; remark: listed apart in the source
[17] = biological target: T1, human CEACAM5 (carcinoembryonic …); assay: flow cytometry, CHO-k1-huCEACAM5 clone 13; parameters: unit not given beside the values
[18] = biological target: T1, human CEACAM5 (carcinoembryonic …); assay: flow cytometry, CHO-k1-huCEACAM5 clone 17; parameters: unit not given beside the values
[19] = biological target: T2, cynomolgus monkey CEACAM5 on …; assay: flow cytometry, CHO-k1-cynoCEACAM5 clone 8; parameters: unit not given beside the values; remark: listed apart in the source

UniProt Q07011, sequence (Q07011 24-255 limits assumed): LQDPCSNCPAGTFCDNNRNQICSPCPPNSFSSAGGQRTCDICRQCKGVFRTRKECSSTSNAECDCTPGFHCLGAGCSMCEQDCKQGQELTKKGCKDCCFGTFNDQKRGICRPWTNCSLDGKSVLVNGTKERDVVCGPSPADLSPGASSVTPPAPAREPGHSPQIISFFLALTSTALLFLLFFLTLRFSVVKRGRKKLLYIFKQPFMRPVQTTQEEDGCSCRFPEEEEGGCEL

EC50, NFκB-luciferase in Jurkat-hu4-1BB-NFκB-luc2 with CHO-k1-human CEACAM5 clone 11 [1]: 0.05 nM
EC50, NFκB-luciferase in Jurkat-hu4-1BB-NFκB-luc2 with CHO-k1-human CEACAM5 clone 12 [1]: 0.03 nM
EC50, NFκB-luciferase in Jurkat-hu4-1BB-NFκB-luc2 with CHO-k1-cyno CEACAM5 clone 8 [2]: 0.13 nM
AUC of activation curve, Jurkat-hu4-1BB-NFκB-luc2 with CHO-k1-human CEACAM5 clone 11 [3]: 174000
AUC of activation curve, Jurkat-hu4-1BB-NFκB-luc2 with CHO-k1-human CEACAM5 clone 12 [3]: 171000
AUC of activation curve, Jurkat-hu4-1BB-NFκB-luc2 with CHO-k1-cyno CEACAM5 clone 8 [4]: 72100
AUC of activation curve, Jurkat-hu4-1BB-NFκB-luc2, no CEA+ cells [5]: 2870
EC50 [6]: 33.7 nM
EC50 [7]: 44 nM
AUC [8]: 3630
AUC [9]: 8350
AUC [10]: 164
binding result (hu N(A2-B2)A-avi-His): binds
B1: CEA(P001.177)-4-1BBL (Fc fusion)
chain 1: REGPELSPDDPAGLLDLRQGMFAQLVAQNVLLIDGPLSWYSDPGLAGVSLTGGLSYKEDTKELVVAKAGVYYVFFQLELRRVVAGEGSGSVSLALHLQPLRSAAGAAALALTVDLPPASSEARNSAFGFQGRLLHLSAGQRLGVHLHTEARARHAWQLTQGATVLGLFRVTPEIPAGLGGGGSGGGGSREGPELSPDDPAGLLDLRQGMFAQLVAQNVLLIDGPLSWYSDPGLAGVSLTGGLSYKEDTKELVVAKAGVYYVFFQLELRRVVAGEGSGSVSLALHLQPLRSAAGAAALALTVDLPPASSEARNSAFGFQGRLLHLSAGQRLGVHLHTEARARHAWQLTQGATVLGLFRVTPEIPAGLGGGGSGGGGSRTVAAPSVFIFPPSDRKLKSGTASVVCLLNNFYPREAKVQWKVDNALQSGNSQESVTEQDSKDSTYSLSSTLTLSKADYEKHKVYACEVTHQGLSSPVTKSFNRGE[human IgG1 Fc with changes not spelt out]
chain 2: REGPELSPDDPAGLLDLRQGMFAQLVAQNVLLIDGPLSWYSDPGLAGVSLTGGLSYKEDTKELVVAKAGVYYVFFQLELRRVVAGEGSGSVSLALHLQPLRSAAGAAALALTVDLPPASSEARNSAFGFQGRLLHLSAGQRLGVHLHTEARARHAWQLTQGATVLGLFRVTPEIPAGLGGGGSGGGGSASTKGPSVFPLAPSSKSTSGGTAALGCLVEDYFPEPVTVSWNSGALTSGVHTFPAVLQSSGLYSLSSVVTVPSSSLGTQTYICNVNHKPSNTKVDEKVEPKSC
heavy: EVQLLESGGGLVQPGGSLRLSCAASGFYFTDYYMNWVRQAPGKGLEWLGFISNKANAYTTEYSASVKGRFTISRDKSKNTLYLQMNSLRAEDTATYYCTRDRGLRFYFDYWGQGTTVTVSSASTKGPSVFPLAPSSKSTSGGTAALGCLVKDYFPEPVTVSWNSGALTSGVHTFPAVLQSSGLYSLSSVVTVPSSSLGTQTYICNVNHKPSNTKVDKKVEPKSCDKTHTCPPCPAPEAAGGPSVFLFPPKPKDTLMISRTPEVTCVVVDVSHEDPEVKFNWYVDGVEVHNAKTKPREEQYNSTYRVVSVLTVLHQDWLNGKEYKCKVSNKALGAPIEKTISKAKGQPREPQVCTLPPSRDELTKNQVSLSCAVKGFYPSDIAVEWESNGQPENNYKTTPPVLDSDGSFFLVSKLTVDKSRWQQGNVFSCSVMHEALHNHYTQKSLSLSP
light: EIVLTQSPATLSLSPGERATLSCRASSSVTYIHWYQQKPGQAPRSWIYATSNLASGIPARFSGSGSGTDFTLTISSLEPEDFAVYYCQHWSSKPPTFGQGTKLEIKRTVAAPSVFIFPPSDEQLKSGTASVVCLLNNFYPREAKVQWKVDNALQSGNSQESVTEQDSKDSTYSLSSTLTLSKADYEKHKVYACEVTHQGLSSPVTKSFNRGEC
notes: split trimeric 4-1BBL Fc (kih) P329G LALA with one anti-CEA Fab; also called CEA (aff. mat. A5H1EL1D P001.177)-4-1BBL; printed once as P001.117

EC50, NFκB-luciferase in Jurkat-hu4-1BB-NFκB-luc2 with CHO-k1-human CEACAM5 clone 11 [1]: 0.08 nM
EC50, NFκB-luciferase in Jurkat-hu4-1BB-NFκB-luc2 with CHO-k1-human CEACAM5 clone 12 [1]: 0.05 nM
AUC of activation curve, Jurkat-hu4-1BB-NFκB-luc2 with CHO-k1-human CEACAM5 clone 11 [3]: 183000
AUC of activation curve, Jurkat-hu4-1BB-NFκB-luc2 with CHO-k1-human CEACAM5 clone 12 [3]: 176000
AUC of activation curve, Jurkat-hu4-1BB-NFκB-luc2 with CHO-k1-cyno CEACAM5 clone 8 [4]: 3940
AUC of activation curve, Jurkat-hu4-1BB-NFκB-luc2, no CEA+ cells [5]: 2660
EC50 [11]: 0.54 nM
EC50 [12]: 2.25 nM
EC50 [13]: 5.17 nM
EC50 [14]: 0.6 nM
AUC [15]: 33200
AUC [16]: 109000
AUC [17]: 168000
AUC [18]: 36300
AUC [19]: 430
B2: CEA(MFE23)-4-1BBL (Fc fusion)
chain 1: REGPELSPDDPAGLLDLRQGMFAQLVAQNVLLIDGPLSWYSDPGLAGVSLTGGLSYKEDTKELVVAKAGVYYVFFQLELRRVVAGEGSGSVSLALHLQPLRSAAGAAALALTVDLPPASSEARNSAFGFQGRLLHLSAGQRLGVHLHTEARARHAWQLTQGATVLGLFRVTPEIPAGLGGGGSGGGGSREGPELSPDDPAGLLDLRQGMFAQLVAQNVLLIDGPLSWYSDPGLAGVSLTGGLSYKEDTKELVVAKAGVYYVFFQLELRRVVAGEGSGSVSLALHLQPLRSAAGAAALALTVDLPPASSEARNSAFGFQGRLLHLSAGQRLGVHLHTEARARHAWQLTQGATVLGLFRVTPEIPAGLGGGGSGGGGSRTVAAPSVFIFPPSDRKLKSGTASVVCLLNNFYPREAKVQWKVDNALQSGNSQESVTEQDSKDSTYSLSSTLTLSKADYEKHKVYACEVTHQGLSSPVTKSFNRGE[human IgG1 Fc with changes not spelt out]
chain 2: B1 chain 2
heavy: QVKLQQSGAELVRSGTSVKLSCTASGFNIKDSYMHWLRQGPEQGLEWIGWIDPENGDTEYAPKFQGKATFTTDTSSNTAYLQLSSLTSEDTAVYYCNEGTPTGPYYFDYWGQGTTVTVSSASTKGPSVFPLAPSSKSTSGGTAALGCLVKDYFPEPVTVSWNSGALTSGVHTFPAVLQSSGLYSLSSVVTVPSSSLGTQTYICNVNHKPSNTKVDKKVEPKSCDKTHTCPPCPAPEAAGGPSVFLFPPKPKDTLMISRTPEVTCVVVDVSHEDPEVKFNWYVDGVEVHNAKTKPREEQYNSTYRVVSVLTVLHQDWLNGKEYKCKVSNKALGAPIEKTISKAKGQPREPQVCTLPPSRDELTKNQVSLSCAVKGFYPSDIAVEWESNGQPENNYKTTPPVLDSDGSFFLVSKLTVDKSRWQQGNVFSCSVMHEALHNHYTQKSLSLSP
light: ENVLTQSPAIMSASPGEKVTITCSASSSVSYMHWFQQKPGTSPKLWIYSTSNLASGVPARFSGSGSGTSYSLTISRMEAEDAATYYCQQRSSYPLTFGAGTKLELKRTVAAPSVFIFPPSDEQLKSGTASVVCLLNNFYPREAKVQWKVDNALQSGNSQESVTEQDSKDSTYSLSSTLTLSKADYEKHKVYACEVTHQGLSSPVTKSFNRGEC
notes: split trimeric 4-1BBL Fc (kih) P329G LALA with one anti-CEA Fab

Source: patent US20220267464A1 (Hoffmann-La Roche, published 2022)
